No constants are given. Whether binding was seen depends on the method and setting. For part of these data: In cells and extracts the contact can be indirect. Some binding calls cover weakened binding; strength is not graded here. For part of these data: Sequences can lack the tags named with a protein.
Legend:
[1] = target: T1, Tim44(43–431), recombinant full-length mature Tim44 (yeast (S. cerevisiae)) (UniProt Q01852); experiment: pull-down; purified Tim44 constructs covalently coupled to CNBr-Sepharose beads; wild-type mitochondria solubilized with 0.5% Triton X-100 in 20 mM Tris/HCl pH 8.0, 80 mM KCl, 10% glycerol at 1 mg/mL; 30 min at 4°C; immunoblotting; only the target purified
T1 sequence: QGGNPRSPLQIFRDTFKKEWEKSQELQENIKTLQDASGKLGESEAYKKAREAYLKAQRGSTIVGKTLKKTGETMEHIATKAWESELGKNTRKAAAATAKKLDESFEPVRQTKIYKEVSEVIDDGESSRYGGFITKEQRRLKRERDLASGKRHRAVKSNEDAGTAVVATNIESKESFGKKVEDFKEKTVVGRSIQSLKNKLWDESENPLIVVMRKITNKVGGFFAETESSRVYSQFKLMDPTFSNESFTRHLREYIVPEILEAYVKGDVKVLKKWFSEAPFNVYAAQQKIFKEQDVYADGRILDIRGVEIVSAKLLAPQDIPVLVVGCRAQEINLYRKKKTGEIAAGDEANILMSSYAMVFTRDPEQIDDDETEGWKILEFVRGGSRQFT

Protein sequences, listed by entry. Tags and fused reporters are not part of them. Residues count along the entry.
UniProt P00830, residues 34-511: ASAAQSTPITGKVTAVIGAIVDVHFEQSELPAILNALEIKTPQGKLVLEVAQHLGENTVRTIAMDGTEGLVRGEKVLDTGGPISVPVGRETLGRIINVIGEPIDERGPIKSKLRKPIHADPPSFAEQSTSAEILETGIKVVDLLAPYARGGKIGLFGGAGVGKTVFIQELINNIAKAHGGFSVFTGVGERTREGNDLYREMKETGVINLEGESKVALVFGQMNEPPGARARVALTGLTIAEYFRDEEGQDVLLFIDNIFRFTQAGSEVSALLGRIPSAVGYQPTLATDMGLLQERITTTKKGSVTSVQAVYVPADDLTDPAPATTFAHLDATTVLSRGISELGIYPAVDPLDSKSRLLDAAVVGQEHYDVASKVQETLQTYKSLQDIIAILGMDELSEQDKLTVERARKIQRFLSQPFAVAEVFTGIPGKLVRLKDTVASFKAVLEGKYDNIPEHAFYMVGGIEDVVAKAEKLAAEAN
UniProt P0CS90, residues 24-654: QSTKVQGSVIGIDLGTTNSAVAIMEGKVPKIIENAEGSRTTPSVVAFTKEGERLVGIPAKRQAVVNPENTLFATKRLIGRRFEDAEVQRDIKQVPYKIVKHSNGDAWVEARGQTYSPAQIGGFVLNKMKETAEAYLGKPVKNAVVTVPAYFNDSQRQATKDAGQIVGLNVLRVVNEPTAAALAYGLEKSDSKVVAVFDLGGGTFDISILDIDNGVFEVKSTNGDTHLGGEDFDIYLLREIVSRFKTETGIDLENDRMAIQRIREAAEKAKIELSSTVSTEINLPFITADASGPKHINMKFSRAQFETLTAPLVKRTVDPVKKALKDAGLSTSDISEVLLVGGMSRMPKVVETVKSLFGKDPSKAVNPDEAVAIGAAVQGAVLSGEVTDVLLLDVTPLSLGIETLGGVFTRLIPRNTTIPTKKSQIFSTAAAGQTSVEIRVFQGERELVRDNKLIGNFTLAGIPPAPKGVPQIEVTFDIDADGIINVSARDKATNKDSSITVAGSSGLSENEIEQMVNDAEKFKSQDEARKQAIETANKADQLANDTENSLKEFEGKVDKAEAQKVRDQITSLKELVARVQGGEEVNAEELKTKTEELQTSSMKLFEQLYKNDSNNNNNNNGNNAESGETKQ

[2] = target: T2, Tim16(Pam16) (S. cerevisiae (endogenous in yeast mitochondria)) (UniProt P42949); experiment: cross-linking; intact mitochondria from FL and N+C cells incubated with the amino group-specific crosslinker DSG; mitochondrial ATP levels altered beforehand where indicated; immunoblotting with antibodies to Tim16 or Tim23
T2 sequence: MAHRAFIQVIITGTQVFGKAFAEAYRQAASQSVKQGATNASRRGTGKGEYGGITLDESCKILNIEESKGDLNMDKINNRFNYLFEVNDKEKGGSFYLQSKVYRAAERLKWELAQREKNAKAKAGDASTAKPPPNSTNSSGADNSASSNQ

[3] = target: T3, Tim44(264–431), recombinant core of the C-terminal domain of Tim44 (yeast (S. cerevisiae)) (UniProt Q01852); experiment: pull-down; purified Tim44 constructs covalently coupled to CNBr-Sepharose beads; wild-type mitochondria solubilized with 0.5% Triton X-100 in 20 mM Tris/HCl pH 8.0, 80 mM KCl, 10% glycerol at 1 mg/mL; 30 min at 4°C; immunoblotting; only the target purified
T3 sequence: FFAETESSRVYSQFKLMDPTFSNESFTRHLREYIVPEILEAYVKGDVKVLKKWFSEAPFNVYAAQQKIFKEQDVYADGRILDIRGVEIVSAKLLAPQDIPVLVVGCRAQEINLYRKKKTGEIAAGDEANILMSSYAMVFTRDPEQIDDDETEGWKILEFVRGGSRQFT

[4] = target: T4, Tim44(43–209), recombinant N-terminal domain of Tim44 (yeast (S. cerevisiae)) (UniProt Q01852); experiment: as above
T4 sequence: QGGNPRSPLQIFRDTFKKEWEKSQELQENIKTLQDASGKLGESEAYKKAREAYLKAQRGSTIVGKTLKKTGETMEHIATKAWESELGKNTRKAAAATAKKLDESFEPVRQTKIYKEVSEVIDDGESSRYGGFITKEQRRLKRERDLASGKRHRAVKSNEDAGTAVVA

[5] = target: T5, Tim17 (S. cerevisiae (endogenous in yeast mitochondria)) (UniProt P39515); experiment: native gel or EMSA; BN-PAGE of digitonin-solubilized mitochondria from FL and N+C cells; immunoblotting
T5 sequence: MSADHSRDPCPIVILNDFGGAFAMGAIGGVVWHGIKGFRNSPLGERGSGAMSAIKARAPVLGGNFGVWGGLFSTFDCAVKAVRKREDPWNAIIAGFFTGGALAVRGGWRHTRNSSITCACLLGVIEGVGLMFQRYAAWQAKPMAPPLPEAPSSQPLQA

[6] = target: T2, Tim16(Pam16) (S. cerevisiae (endogenous in yeast mitochondria)); experiment: co-IP; mitochondria from FL and N+C cells solubilized with digitonin; affinity-purified antibodies to Tim17, Tim23 and Tim16 prebound to Protein A-Sepharose; preimmune antibodies as negative control; immunoblotting
[7] = target: T5, Tim17 (S. cerevisiae (endogenous in yeast mitochondria)); experiment: as above
[8] = target: T6, Tim23 (S. cerevisiae (endogenous in yeast mitochondria)) (UniProt P32897); experiment: as above
T6 sequence: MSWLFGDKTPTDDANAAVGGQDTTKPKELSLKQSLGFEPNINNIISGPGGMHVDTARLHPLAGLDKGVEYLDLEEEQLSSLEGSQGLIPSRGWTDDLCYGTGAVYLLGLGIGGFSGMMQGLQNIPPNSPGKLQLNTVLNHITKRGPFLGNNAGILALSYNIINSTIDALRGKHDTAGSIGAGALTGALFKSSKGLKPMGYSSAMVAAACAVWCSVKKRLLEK

[9] = target: T2, Tim16(Pam16) (S. cerevisiae (endogenous in yeast mitochondria)); experiment: native gel or EMSA; BN-PAGE of digitonin-solubilized mitochondria from FL and N+C cells; immunoblotting
[10] = target: T7, Tim16(Pam16) (S. cerevisiae (endogenous in yeast mitochondria)), P42949; experiment: cross-linking; intact mitochondria from FL and N+C cells incubated with the amino group-specific crosslinker DSG; mitochondrial ATP levels altered beforehand where indicated; immunoblotting with antibodies to Tim16 or Tim23; settings: remark: other sources report otherwise
T7 chain: T2 sequence

[11] = target: T6, Tim23 (S. cerevisiae (endogenous in yeast mitochondria)); experiment: as above
[12] = target: T8, Tim23 (S. cerevisiae (endogenous in yeast mitochondria)), P32897; experiment: as above; settings: remark: other sources report otherwise
T8 chain: T6 sequence

[13] = target: T9, His6-Tim44(43–263) (yeast (S. cerevisiae)) (UniProt Q01852); experiment: pull-down; purified His6-Tim44(43–263) incubated with purified Tim44(211–431) for 5 min at 25°C, then NiNTA-agarose beads for 30 min at 4°C; low-salt (20 mM Tris/HCl, 50 mM NaCl, 10 mM imidazole, pH 8.0) or high-salt buffer (300 mM NaCl); eluted with 300 mM imidazole; Coomassie staining; both purified
T9 sequence: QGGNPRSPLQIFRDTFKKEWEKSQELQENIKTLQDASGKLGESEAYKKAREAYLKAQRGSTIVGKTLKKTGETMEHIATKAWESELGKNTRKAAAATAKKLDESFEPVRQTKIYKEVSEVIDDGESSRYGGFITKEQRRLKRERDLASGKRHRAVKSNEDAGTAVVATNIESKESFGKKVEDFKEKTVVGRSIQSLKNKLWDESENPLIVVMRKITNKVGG

[14] = target: T10, His9-tagged N-terminal domain of Tim44 in His9N+C mitochondria (yeast (S. cerevisiae)) (UniProt Q01852); experiment: pull-down; His9N+C (and N+C) mitochondria solubilized with digitonin-containing buffer, NiNTA-agarose beads at 4°C; immunoblotting with antibodies to Tim44
T10 sequence: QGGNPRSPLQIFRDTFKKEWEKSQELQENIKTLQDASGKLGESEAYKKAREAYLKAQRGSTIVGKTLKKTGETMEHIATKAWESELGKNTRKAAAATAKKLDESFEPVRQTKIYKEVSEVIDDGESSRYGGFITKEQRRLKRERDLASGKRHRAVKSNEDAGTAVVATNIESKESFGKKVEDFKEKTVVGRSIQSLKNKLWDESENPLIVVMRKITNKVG

How did the binding [1] turn out when “β subunit of FoF1 ATPase (from UniProt P00830 34-511)” was run?
The binding was “no binding”.

How did the binding [2] turn out when mtHsp70 (from UniProt P0CS90 24-654) was run?
The binding was “binds”.

What about the binding [3] of the same molecule?
Its binding is “binds weakly”.

And the binding [4]?
The binding was “binds”.

What about the binding [1] of the same molecule?
Its binding is “binds”.

B1: Tim23 (protein, UniProt P32897 1-222)
chain: T6 sequence
What does the source list for B1?
binding [5]: binds; binding [6]: binds; binding [7]: binds

B2: Tim16(Pam16) (protein, UniProt P42949 1-149)
chain: T2 sequence
How did the binding [7] turn out when B2 was run?
The binding was “binds”.

What about the binding [8] of the same molecule?
Its binding is “binds”.

B3: Tim14(Pam18) (protein, UniProt Q07914 1-168)
chain: MSSQSNTGNSIEAPQLPIPGQTNGSANVTVDGAGVNVGIQNGSQGQKTGMDLYFDQALNYMGEHPVITGFGAFLTLYFTAGAYKSISKGLNGGKSTTAFLKGGFDPKMNSKEALQILNLTENTLTKKKLKEVHRKIMLANHPDKGGSPFLATKINEAKDFLEKRGISK
With B3 as the molecule, how does the binding [9] read?
The binding was “binds”.

What about the binding [6] of the same molecule?
Its binding is “binds”.

What about the binding [8] of the same molecule?
Its binding is “binds”.

And the binding [2]?
Its binding is “binds”.

B4: Tim17 (protein, UniProt P39515 1-158)
chain: T5 sequence
For B4, which binding [6] is on record?
The binding was “binds”.

And the binding [8]?
The binding was “binds”.

B5: Tim16(Pam16), P42949 1-149 (protein)
chain: T2 sequence
With B5 as the molecule, how does the binding [10] read?
Its binding is “binds”.

B6: Pam17 (protein, UniProt P36147 15-197)
chain: ASQPSVTAAALRSTATTLPLRSYSQPASLQDSSILTWSDFFKLRKQQRRINVGSSLFTALLGCNVSWAYLSTMEIDPTQMLFGFDPLTVISAGIIASGALGYLLGPIVGSQVFKLSHNQQLAQFNNKNKEFLKHIINNRVDASSQSFSNPVPDYYGEKIGSLKEYKQWLRDCHAYAKKAKEFL
How did the binding [11] turn out when B6 was run?
Its binding is “binds”.

B7: Tim23, P32897 1-222 (protein)
chain: T6 sequence
For B7, which binding [12] is on record?
Its binding is “binds”.

B8: Tim44(211–431) (protein)
chain: NIESKESFGKKVEDFKEKTVVGRSIQSLKNKLWDESENPLIVVMRKITNKVGGFFAETESSRVYSQFKLMDPTFSNESFTRHLREYIVPEILEAYVKGDVKVLKKWFSEAPFNVYAAQQKIFKEQDVYADGRILDIRGVEIVSAKLLAPQDIPVLVVGCRAQEINLYRKKKTGEIAAGDEANILMSSYAMVFTRDPEQIDDDETEGWKILEFVRGGSRQFT
B8 was tested. Which binding [13] did it give?
Its binding is “no binding”.

B9: C-terminal domain of Tim44 with helices A1 and A2, Tim44(210–431), in N+C mitochondria (domain or fragment, UniProt Q01852 210-431)
chain: TNIESKESFGKKVEDFKEKTVVGRSIQSLKNKLWDESENPLIVVMRKITNKVGGFFAETESSRVYSQFKLMDPTFSNESFTRHLREYIVPEILEAYVKGDVKVLKKWFSEAPFNVYAAQQKIFKEQDVYADGRILDIRGVEIVSAKLLAPQDIPVLVVGCRAQEINLYRKKKTGEIAAGDEANILMSSYAMVFTRDPEQIDDDETEGWKILEFVRGGSRQFT
B9 was tested. Which binding [14] did it give?
The binding was “no binding”.

Reference: paper PMC4749553 (2015)
